The list shows a part of the results.
Columns and labels:
[1] = tested on: HSkMC (human skeletal muscle cells); experiment: cytotoxicity call (relative viability < 0.9); settings: 10 µM
[2] = tested on: HepG2; experiment: cytotoxicity call (relative viability < 0.9); settings: 10 µM
[3] = tested on: S. aureus RN4220; experiment: growth inhibition call (relative growth <= 0.2); settings: 50 µM

Cc1noc(C)c1NC(=O)Nc1ccc2c(c1)C(=O)N([C@H](C)CO)C[C@H](C)[C@@H](CN(C)Cc1ccc(Oc3ccccc3)cc1)O2
inactive: cytotoxicity call [1] | cytotoxicity call [2] | growth inhibition call [3]

C[C@H]1CCCCO[C@H](CN(C)C(=O)NC2CCCCC2)[C@@H](C)CN([C@@H](C)CO)C(=O)c2cc(NC(=O)Cc3ccccc3)ccc2O1
inactive: cytotoxicity call [1] | cytotoxicity call [2] | growth inhibition call [3]

C[C@@H]1CN([C@@H](C)CO)C(=O)Cc2cc(NC(=O)NC3CCCCC3)ccc2O[C@@H]1CN(C)S(C)(=O)=O
inactive: cytotoxicity call [1] | cytotoxicity call [2] | growth inhibition call [3]

Reference: the antibiotic and cytotoxicity screens of Wong et al. (2023)
